Laboratory results published in PubChem BioAssay AID588342 (National Center for Advancing Translational Sciences (NCATS), 2011).
Among all 360,000 compounds or so, about 25,000 (6.9%) were called active. Inconclusive means that the source gave no clear call. Such entries were picked first, then a sample of the others. Calls come from the whole dose curve; as a rule, active = well fitted inhibition curve with a large enough effect; inconclusive = small, poorly fitted or top-dose-only effect; inactive = flat fitted curve, though single readings scatter. Potencies of inconclusive entries are doubtful fits and often do not repeat.
Note: nearly all actives have a fitted effect of over 55% in size.
Potency is the fitted concentration of half-maximal effect; tags give direction and shape of the fitted curve.
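Throughout, for activity change, negative = inhibition: plate controls were vehicle for no effect and reference inhibitor for full effect.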

Each compound was assayed against Luciferin 4-monooxygenase (Photinus pyralis) (UniProt P08659) (assay: qHTS profiling assay for firefly luciferase inhibitor/activator using purifed enzyme and Km concentrations of substrates (counterscreen for miR-21 project)). Details: purified FLuc, luminescence inhibition; series mostly up to 57.5 µM; activity change, negative = inhibition: at the top concentration.
Sequence of UniProt P08659 (P08659 whole entry, looked up): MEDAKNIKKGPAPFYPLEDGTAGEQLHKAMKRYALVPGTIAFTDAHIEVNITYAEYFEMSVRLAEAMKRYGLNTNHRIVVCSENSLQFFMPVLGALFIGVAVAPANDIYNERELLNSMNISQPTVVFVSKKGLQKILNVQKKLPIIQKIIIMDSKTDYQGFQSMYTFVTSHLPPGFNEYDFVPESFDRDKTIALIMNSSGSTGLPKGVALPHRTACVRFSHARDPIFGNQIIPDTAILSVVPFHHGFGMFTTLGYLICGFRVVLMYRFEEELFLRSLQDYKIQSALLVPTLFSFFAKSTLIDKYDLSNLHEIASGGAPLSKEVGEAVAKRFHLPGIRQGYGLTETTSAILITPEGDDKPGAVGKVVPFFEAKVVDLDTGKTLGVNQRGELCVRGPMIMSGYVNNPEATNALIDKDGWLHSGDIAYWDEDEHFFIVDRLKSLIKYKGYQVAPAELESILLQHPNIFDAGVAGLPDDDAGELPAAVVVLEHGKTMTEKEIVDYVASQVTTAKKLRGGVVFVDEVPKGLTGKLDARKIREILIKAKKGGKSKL
Method in brief: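 Biochemical qHTS of compounds, final roughly 60 µM downward over six points, against 10 nM purified firefly luciferase using Km concentrations of substrates (10 uM D-luciferin, 10 uM ATP) in Tris acetate pH 7.5 buffer; luminescence output.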
In the case of `COc1ccc(-c2cc(=O)oc3cc(OC(C)C(=O)NC(Cc4c[nH]c5ccc(O)cc45)C(=O)O)ccc23)cc1` (centres undefined), the Potency is reported as inconclusive: 37.9 µM [inhibitor, partial curve, poor fit]. With `CCc1ccccc1NC(=O)N1CCC(CN2CCc3ccccc3C2)CC1` the “activity change, negative = inhibition” value was inactive: 0.232%. For `CC(SCc1ccccc1)C(=O)Nc1ccc2c(c1)OCO2` (centres undefined), the Potency was inconclusive: 21.3 µM [inhibitor, single point]. For `Cc1nnc(NNS(=O)(=O)c2ccc(Cl)cc2)[nH]c1=O`, the Potency was inconclusive: 37.9 µM [inhibitor, partial curve, poor fit]. For `CN(C)/C=C/C(=O)c1ccc2noc(-c3ccccc3)c2c1`, the Potency was inconclusive: 30.1 µM [inhibitor, partial curve, poor fit]. `Nc1cccc2c1C(=O)N(Cc1nnc(-c3ccccc3Br)o1)C2=O` was tested, and the Potency was inconclusive: 37.9 µM [inhibitor, partial curve, poor fit]. `Cc1occc1C(=O)NCCc1ccc(Cl)cc1` was tested, and the Potency was inconclusive: 26.9 µM [inhibitor, partial curve, poor fit]. In the case of `CSc1nnc(-c2sc3cc(Cl)ccc3c2Cl)n1C`, the Potency is reported as inconclusive: 6.01 µM [inhibitor, partial curve, poor fit]. In the case of `COc1ccc(NS(=O)(=O)c2cc(NC(=O)c3ccc(=O)[nH]c3)ccc2C)cc1`, the Potency is reported as inconclusive: 37.9 µM [inhibitor, partial curve, poor fit]. `CN(C)S(=O)(=O)c1cc(NC(=O)c2ccc(-n3ccnc3)c([N+](=O)[O-])c2)ccc1Cl` was tested, and the Potency was inconclusive: 21.3 µM [inhibitor, partial curve, poor fit]. With `O=S(=O)(Nc1cc(Sc2cccc3cccnc23)c(O)c2ccccc12)c1ccccc1` the Potency was inconclusive: 19 µM [inhibitor, partial curve]. With `Cc1oc(-c2ccccc2)cc1C(=O)Nc1ccc(N(C)C)cc1` the Potency was active: 13.5 µM. In the case of `COc1ccc(N2CCN(C(=O)c3cc(=O)c4cc(C)c(C)cc4o3)CC2)cc1`, the Potency is reported as inconclusive: 16.9 µM [inhibitor, partial curve]. For `Nc1n[nH]c(C2CC2)c1N=Nc1ccc(Cl)c(Cl)c1`, the Potency was inconclusive: 23.9 µM [inhibitor, partial curve, poor fit]. In the case of `O=C(CSc1ncn[nH]1)N/N=C/c1ccc(C(F)(F)F)cc1`, the Potency is reported as inconclusive: 21.3 µM [inhibitor, partial curve]. `CCc1ccccc1NC(=S)NC1CC2CCC(C1)N2Cc1ccc(F)cc1` (centres undefined) was tested, and the Potency was inconclusive: 0.0107 µM [inhibitor, partial curve, poor fit]. With `COCCNC(=O)C(OC(=O)c1ccco1)c1ccccc1F` (centres undefined) the “activity change, negative = inhibition” value was inactive: 3.77%. In the case of `COc1ccc(-n2nc([N+](=O)[O-])c(=NCCc3ccc(Cl)cc3)n2O)cc1`, the “activity change, negative = inhibition” value is reported as inactive: 0.54%. In the case of `CCOc1cc(CNc2ccc(C(=O)O)cc2)ccc1OCc1ccccc1`, the Potency is reported as inconclusive: 21.3 µM [inhibitor, partial curve]. In the case of `COc1cc(Cl)c(C)cc1Nc1ncccn1`, the “activity change, negative = inhibition” value is reported as inactive: -9.21%. For `COC(=O)c1ccccc1SC(CC(=O)c1ccccc1)c1ccc(F)cc1` (centres undefined), the Potency was inconclusive: 12 µM [inhibitor, partial curve]. In the case of `Fc1ccccc1NC(=S)NCCc1ccc(Cl)cc1`, the Potency is reported as active: 19 µM. In the case of `Cc1cc[n+](CC(=O)c2cccs2)cc1`, the Potency is reported as inconclusive: 6.75 µM [inhibitor, partial curve, poor fit]. For `N#C/C(=C\c1ccncc1)c1nc2ccccc2c(=O)[nH]1`, the Potency was inconclusive: 26.9 µM [inhibitor, partial curve]. With `COc1ccc(-n2nc(C(=O)NCC(=O)N3CCN(Cc4ccccc4)CC3)c3ccccc3c2=O)c(OC)c1` the Potency was inconclusive: 19 µM [inhibitor, partial curve]. In the case of `COc1ccccc1-c1c(C)oc2cc(OC(=O)c3ccco3)ccc2c1=O`, the Potency is reported as inconclusive: 19 µM [inhibitor, partial curve]. `COc1ccc(-c2cccc(NS(=O)(=O)c3ccc(C)s3)c2)nn1` was tested, and the “activity change, negative = inhibition” value was inactive: -19.1%. With `COc1ccc(NC(=O)c2oc3ccccc3c2CSC)cn1` the Potency was inconclusive: 37.9 µM [inhibitor, partial curve, poor fit]. With `Cc1ccc(C(=O)N/N=C/c2ccc(S(=O)(=O)O)o2)c(Cl)c1` the Potency was active: 15.1 µM. `CC(=O)NS(=O)(=O)c1ccc(NC(=O)/C=C/c2ccc(C)o2)cc1` was tested, and the Potency was inconclusive: 15.1 µM [inhibitor, partial curve, poor fit]. In the case of `N=C1/C(=C\c2ccc(OC(=O)c3ccc(F)cc3)cc2)C(=O)N=C2SC(N3CCCC3)=NN12`, the Potency is reported as inconclusive: 23.9 µM [inhibitor, partial curve, poor fit]. With `Cc1cc(N/N=C/c2ccccc2O)c2ccccc2n1` the Potency was active: 15.1 µM. With `Clc1ccc(SCc2nc3ccccc3[nH]2)cc1` the Potency was active: 9.53 µM. `O=C1ON=C(c2ccccc2)/C1=C/c1ccccc1` was tested, and the Potency was inconclusive: 37.9 µM [inhibitor, partial curve, poor fit]. For `O=C(Oc1ccc(Cl)c2cccnc12)c1ccco1`, the Potency was inconclusive: 23.9 µM [inhibitor, partial curve]. With `COc1ccc2nc(NC(=O)CS(=O)(=O)c3ccc(C)cc3)sc2c1` the Potency was inconclusive: 37.9 µM [inhibitor, partial curve, poor fit]. `COc1ccc(Nc2cc(C)c3ccc(O)cc3n2)cc1` was tested, and the Potency was active: 23.9 µM. With `CCN1CCN(C(=O)c2cc(COc3ccc(C(C)=O)cc3OC)on2)CC1` the Potency was active: 12 µM. `Cc1nc2nc(NCc3cccc(Cl)c3)[nH]n2c(=O)c1Cc1ccccc1` was tested, and the Potency was inconclusive: 21.3 µM [inhibitor, partial curve, poor fit]. With `COC(=O)CC(=O)CSc1nc2c(cc1C#N)CCC2` the Potency was active: 13.5 µM. With `CCCCNc1nc2cccnc2s1` the Potency was inconclusive: 19 µM [inhibitor, partial curve, poor fit]. In the case of `COC(=O)c1ccc(Cn2c(SCc3ccccc3F)nc3ccncc32)cc1`, the Potency is reported as inconclusive: 30.1 µM [inhibitor, partial curve, poor fit]. With `Cc1ccc(SCC(=O)NCc2ccccc2)cc1` the Potency was inconclusive: 37.9 µM [inhibitor, partial curve, poor fit]. For `C/C(=N\NC(=O)c1ccccc1OCCOc1ccccc1)c1ccccc1F`, the Potency was inconclusive: 21.3 µM [inhibitor, partial curve, poor fit]. `O=C(CSc1nc2nc(-c3cccs3)cc(C(F)(F)F)c2c(=O)[nH]1)Nc1ccc(F)c(F)c1` was tested, and the Potency was inconclusive: 37.9 µM [inhibitor, partial curve, poor fit]. For `Cc1[nH]n(C)c(=O)c1[N+](=O)[O-]`, the “activity change, negative = inhibition” value was inactive: 0.175%. `Cc1csc(SCc2nc3scc(-c4ccccc4)c3c(=O)[nH]2)n1` was tested, and the Potency was inconclusive: 23.9 µM [inhibitor, single point]. `COc1cccc(C(=O)Nc2cc(-c3cn4cccnc4n3)ccc2C)c1` was tested, and the Potency was inconclusive: 26.9 µM [inhibitor, single point]. For `COc1cc(Cl)c(C)cc1NC(=O)c1ccc2c(c1)OCO2`, the “activity change, negative = inhibition” value was inactive: -17.3%. `CCN1CCc2nc3sc(C(=O)c4ccccc4)c(N)c3cc2C1` was tested, and the Potency was active: 9.53 µM. With `COc1ccc(/C=C\C(=O)NCc2ccc3[nH]c(C)cc3c2)cc1OC` the Potency was inconclusive: 26.9 µM [inhibitor, single point]. `Cc1cccc(C)c1NC(=O)/C(C#N)=C/c1ccc(-c2ccc(C(=O)O)cc2)o1` was tested, and the Potency was active: 12 µM. For `Cc1ccc(OCC(=O)NCc2cccs2)c([N+](=O)[O-])n1`, the “activity change, negative = inhibition” value was inactive: -0.263%. `COC(=O)C1=C(O)/C(=C\c2ccc(OCC(=O)Nc3ccccc3OC)cc2)N=C1C` was tested, and the Potency was inconclusive: 1.9 µM [inhibitor, partial curve]. `COc1cccc2c(N/N=C/c3ccc(O)c(O)c3)cc(C)nc12` was tested, and the Potency was inconclusive: 30.1 µM [inhibitor, partial curve, poor fit]. In the case of `Cc1cc(C)nc(Nc2n[nH]c(-c3ccccc3C)n2)n1`, the Potency is reported as active: 9.53 µM. In the case of `O=C(CSc1nc(Nc2ccccc2)nc(N2CCOCC2)n1)Nc1cccc([N+](=O)[O-])c1`, the Potency is reported as inconclusive: 37.9 µM [inhibitor, single point]. In the case of `Cc1ccc(CSc2nnc(-c3ccccc3N)c(=O)[nH]2)cc1`, the Potency is reported as inconclusive: 21.3 µM [inhibitor, partial curve, poor fit]. In the case of `COCCNC(=O)c1ccc2c(c1)N(Cc1cc(C)ccc1C)C(=O)c1ccccc1S2(=O)=O`, the “activity change, negative = inhibition” value is reported as inactive: -6.3%. For `Cc1cc(C(=O)COc2ncnc3sccc23)c(C)n1C1CC1`, the “activity change, negative = inhibition” value was inactive: -13.2%. `Cc1cccc(NC(=O)c2cc(-c3ccc4c(c3)OCCO4)on2)c1` was tested, and the Potency was active: 0.19 µM. `COC(=O)CNc1nc(-c2ccncc2)nc2ccccc12` was tested, and the “activity change, negative = inhibition” value was inactive: 1.11%. In the case of `CCOC(=O)c1ccc(N2CCOCC2)c(NC(=O)c2nccnc2C(=O)O)c1`, the “activity change, negative = inhibition” value is reported as inactive: 5.66%. `COc1ccc(CCN(C)C(=O)c2cc(-c3ccccc3)nc3ccc(C)cc23)cc1OC` was tested, and the Potency was active: 2.39 µM. For `CC1CCN(C(=O)c2ccc(COc3ccccc3Cl)o2)CC1`, the Potency was inconclusive: 26.9 µM [inhibitor, partial curve, poor fit]. For `CN1c2ccccc2-c2nc3ccccc3n2C1c1ccccn1` (centres undefined), the Potency was inconclusive: 30.1 µM [inhibitor, partial curve, poor fit]. In the case of `C/C(=N\Nc1nc(N)cc(Cl)n1)c1cccc([N+](=O)[O-])c1`, the Potency is reported as inconclusive: 12 µM [inhibitor, partial curve]. In the case of `Cc1ccc2nc(-c3ccccn3)oc2c1`, the Potency is reported as active: 1.9 µM. `COc1ccc(-c2cn3ccccc3n2)cc1[N+](=O)[O-]` was tested, and the Potency was active: 1.69 µM.
